Measured values taken from PMC5892938.
The list shows a part of the results. At the low end of the ranking, values are background and their order means little.

What follows are sequences tested against GST-SBP-SLBP (stem-loop binding protein) (UniProt Q14493) (assay: targeted RNA Bind-n-Seq). Conditions: RBNS binding buffer: 25 mM Tris pH 7.5, 150 mM KCl, 3 mM MgCl2, 0.1% Tween, 0.5 mg/mL BSA, 1 mM DTT; 27 nM protein, 750 pM RNA pool; temperature not stated; high values mean tight binding.
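Further: DESeq read counts versus GST-SBP nonspecific binding control pulldown.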

Sequence	binding signal (log2 fold change)
GGUCACGUCUCAAUCAACUCUUUCCCAGGAGUUUUCUCCUGCUAACUCAACAGCUCGCAGUCAAG	0.176
GGUCACGUCUCAAUCAACUCAACUCCCAGGGAAAUCCCUGGCAUUCUCAACAGCUCGCAGUCAAG	-0.0583
GGUCACGUCUCAAUCAACUCUAUUCCAGGAGUUUACUCCUGUAUAUUCAACAGCUCGCAGUCAAG	-0.17
GGUCACGUCUCAAUCAACUCUCAAGAGGGGGGGAAAACCCCUUUACCCUCAAUAUCAACAGCUCGCAGUCAAG	-0.838
GGUCACGUCUCAAUCAACUCAAGGUCAGGAGUUUACUCCUGUUUAUUCAACAGCUCGCAGUCAAG	-0.241
GGUCACGUCUCAAUCAACUCAUCCUCAGGAGUUUCCUCCUGCAAUCUCAACAGCUCGCAGUCAAG	0.187
GGUCACGUCUCAAUCAACUCUAUCGAGGGGGGGAAAACCCCUUUACCCUCAUUAUCAACAGCUCGCAGUCAAG	-0.151
GGUCACGUCUCAAUCAACUCAAUCCCAGGAGUUUACUCCUGUUAUGUCAACAGCUCGCAGUCAAG	0.0212
GGUCACGUCUCAAUCAACUCAUUUUCCAGGGAAACCCCUGGUUAUUUCAACAGCUCGCAGUCAAG	-0.221
GGUCACGUCUCAAUCAACUCAACUCCCAGGGAAACCCCUGGUUAACUCAACAGCUCGCAGUCAAG	-0.196
GGUCACGUCUCAAUCAACUCUAUCUCCAGGGAAAGCCCUGGUAUAUUCAACAGCUCGCAGUCAAG	0.00657
GGUCACGUCUCAAUCAACUCAAUCCCAGGAGUUUUCUCCUGUUAACUCAACAGCUCGCAGUCAAG	0.104
GGUCACGUCUCAAUCAACUCUUUCCCCAGGGAAAACCCUGGCUAUUUCAACAGCUCGCAGUCAAG	-0.0232
GGUCACGUCUCAAUCAACUCAAUUCCAGGAGUUUACUCCUGUUUUUUCAACAGCUCGCAGUCAAG	-0.0915
GGUCACGUCUCAAUCAACUCUAUCUCAGGAGUUUUCUCCUGCUUUCUCAACAGCUCGCAGUCAAG	0.0177
GGUCACGUCUCAAUCAACUCAAUGUCAGGAGUUUUCUCCUGCUUUCUCAACAGCUCGCAGUCAAG	0.104
GGUCACGUCUCAAUCAACUCUAUCUCCAGGGAAAACCCUGGCUUACUCAACAGCUCGCAGUCAAG	0.0425
GGUCACGUCUCAAUCAACUCUAUCGCAGGAGUUUACUCCUGGUAAUUCAACAGCUCGCAGUCAAG	0.0219
GGUCACGUCUCAAUCAACUCAUCUUCAGGAGUUUCCUCCUGCAUUCUCAACAGCUCGCAGUCAAG	0.152
GGUCACGUCUCAAUCAACUCAAUCCCCAGGGAAAGCCCUGGCUUACUCAACAGCUCGCAGUCAAG	-0.0119
GGUCACGUCUCAAUCAACUCACAAGAGGGGGGGAAAACCCCUUUGCCCUCAACUUCAACAGCUCGCAGUCAAG	-0.0129
GGUCACGUCUCAAUCAACUCAUCGUCAGGAGUUUCCUCCUGUAAAUUCAACAGCUCGCAGUCAAG	0.00895
GGUCACGUCUCAAUCAACUCAGUCCCAGGAGUUUACUCCUGUAUAUUCAACAGCUCGCAGUCAAG	-0.00892
GGUCACGUCUCAAUCAACUCAACUUCCAGGGAAACCCCUGGCAAUCUCAACAGCUCGCAGUCAAG	-0.26
GGUCACGUCUCAAUCAACUCAUCUCCAGGAGUUUACUCCUGCUUACUCAACAGCUCGCAGUCAAG	-0.111

Sequence	binding signal (log2 fold change)
GGUCACGUCUCAAUCAACUCUUCUUCCAGGGAAACCCCUGGUAAUUUCAACAGCUCGCAGUCAAG	0.191
GGUCACGUCUCAAUCAACUCUACUUCAGGAGUUUCCUCCUGCUAUUUCAACAGCUCGCAGUCAAG	0.00994
GGUCACGUCUCAAUCAACUCCCAUGAGGGGGGGAAAACCCCUUUACCCUCCAUUUCAACAGCUCGCAGUCAAG	0.0842
GGUCACGUCUCAAUCAACUCUCACGAGGGGGGGAAAACCCCUUUACCCUCAUACUCAACAGCUCGCAGUCAAG	0.202
GGUCACGUCUCAAUCAACUCUUCCGAGGGGGGGAAAACCCCUUUACCCUCAUUAUCAACAGCUCGCAGUCAAG	-0.222
GGUCACGUCUCAAUCAACUCAUUUCCAGGAGUUUACUCCUGUAAUUUCAACAGCUCGCAGUCAAG	0.165
GGUCACGUCUCAAUCAACUCAUCUUCAGGAGUUUUCUCCUGUUUUCUCAACAGCUCGCAGUCAAG	0.00207
GGUCACGUCUCAAUCAACUCAUUUCCCAGGGAAAGCCCUGGCUAUUUCAACAGCUCGCAGUCAAG	-0.0705
GGUCACGUCUCAAUCAACUCUUUUCCAGGAGUUUCCUCCUGUUUAUUCAACAGCUCGCAGUCAAG	-0.0297
GGUCACGUCUCAAUCAACUCUUUCUCAGGAGUUUACUCCUGCUAUUUCAACAGCUCGCAGUCAAG	0.0481
GGUCACGUCUCAAUCAACUCCUUAGAGGGGGGGAAAACCCCUUUACCCUCGAAUUCAACAGCUCGCAGUCAAG	-0.209
GGUCACGUCUCAAUCAACUCAUUUCCAGGAGUUUUCUCCUGCAUAGUCAACAGCUCGCAGUCAAG	0.138
GGUCACGUCUCAAUCAACUCAUCCUCAGGAGUUUUCUCCUGCAUUUUCAACAGCUCGCAGUCAAG	0.0528
GGUCACGUCUCAAUCAACUCCUCUGAGGGGGGGAAAACCCCUUUACCCUCUAUUUCAACAGCUCGCAGUCAAG	-0.49
GGUCACGUCUCAAUCAACUCAUCCUCAGGAGUUUUCUCCUGCAAUGUCAACAGCUCGCAGUCAAG	0.197
GGUCACGUCUCAAUCAACUCUUUUCCCAGGGAAAUCCCUGGCAAUCUCAACAGCUCGCAGUCAAG	0.00717
GGUCACGUCUCAAUCAACUCAUCGCCAGGAGUUUCCUCCUGCAAAUUCAACAGCUCGCAGUCAAG	0.16
GGUCACGUCUCAAUCAACUCAUCUUCAGGAGUUUCCUCCUGCUUUUUCAACAGCUCGCAGUCAAG	0.03
GGUCACGUCUCAAUCAACUCAAUCCCAGGAGUUUUCUCCUGUUUUCUCAACAGCUCGCAGUCAAG	0.21
GGUCACGUCUCAAUCAACUCAAUCCCAGGAGUUUUCUCCUGCUUACUCAACAGCUCGCAGUCAAG	0.0488
GGUCACGUCUCAAUCAACUCAAUUUCAGGAGUUUCCUCCUGCUUAUUCAACAGCUCGCAGUCAAG	0.0437
GGUCACGUCUCAAUCAACUCAUCCCCAGGAGUUUGCUCCUGUAUAUUCAACAGCUCGCAGUCAAG	0.204
GGUCACGUCUCAAUCAACUCAACUCCAGGAGUUUUCUCCUGCAAUUUCAACAGCUCGCAGUCAAG	-0.0321
GGUCACGUCUCAAUCAACUCAUCGGCCAGGGAAACCCCUGGGAAUUUCAACAGCUCGCAGUCAAG	-0.0485
GGUCACGUCUCAAUCAACUCUAUCUCCAGGGAAAUCCCUGGUAUUUUCAACAGCUCGCAGUCAAG	-0.184

Sequence	binding signal (log2 fold change)
GGUCACGUCUCAAUCAACUCUUCUCCAGGAGUUUCCUCCUGUUAUUUCAACAGCUCGCAGUCAAG	-0.0232
GGUCACGUCUCAAUCAACUCUACUUCCAGGGAAAGCCCUGGUAAUCUCAACAGCUCGCAGUCAAG	-0.214
GGUCACGUCUCAAUCAACUCAUGUCCAGGAGUUUCCUCCUGUAAUCUCAACAGCUCGCAGUCAAG	-0.0512
GGUCACGUCUCAAUCAACUCAUGUCCAGGAGUUUCCUCCUGCUAAUUCAACAGCUCGCAGUCAAG	-0.0153
GGUCACGUCUCAAUCAACUCAAUUUCCAGGGAAAUCCCUGGCAUAGUCAACAGCUCGCAGUCAAG	-0.0357
GGUCACGUCUCAAUCAACUCAUUCCCCAGGGAAACCCCUGGCAAACUCAACAGCUCGCAGUCAAG	-0.031
GGUCACGUCUCAAUCAACUCACUCGAGGGGGGGAAAACCCCUUUACCCUCACACUCAACAGCUCGCAGUCAAG	0.0789
GGUCACGUCUCAAUCAACUCUCCAGAGGGGGGGAAAACCCCUUUACCCUCGAAUUCAACAGCUCGCAGUCAAG	0.0484
GGUCACGUCUCAAUCAACUCCCUCGAGGGGGGGAAAACCCCUUUACCCUCUUAUUCAACAGCUCGCAGUCAAG	0.102
GGUCACGUCUCAAUCAACUCUUUUCCCAGGGAAAGCCCUGGUAUUCUCAACAGCUCGCAGUCAAG	0.000225
GGUCACGUCUCAAUCAACUCAACUUCAGGAGUUUACUCCUGCAAACUCAACAGCUCGCAGUCAAG	-0.0233
GGUCACGUCUCAAUCAACUCUUCUUCCAGGGAAACCCCUGGUUUACUCAACAGCUCGCAGUCAAG	-0.207
GGUCACGUCUCAAUCAACUCUAUCUCAGGAGUUUACUCCUGUUUACUCAACAGCUCGCAGUCAAG	-0.103
GGUCACGUCUCAAUCAACUCAUUCUCCAGGGAAAACCCUGGCUAUCUCAACAGCUCGCAGUCAAG	0.0805
GGUCACGUCUCAAUCAACUCUUCCCCCAGGGAAAACCCUGGCUUUCUCAACAGCUCGCAGUCAAG	0.0728
GGUCACGUCUCAAUCAACUCUACUUCAGGAGUUUUCUCCUGUUAUUUCAACAGCUCGCAGUCAAG	-0.086
GGUCACGUCUCAAUCAACUCAAUCUCCAGGGAAACCCCUGGCAUUCUCAACAGCUCGCAGUCAAG	0.0212
GGUCACGUCUCAAUCAACUCAAUUUCCAGGGAAAGCCCUGGUAUAUUCAACAGCUCGCAGUCAAG	-0.000548
GGUCACGUCUCAAUCAACUCAUCCUCAGGAGUUUCCUCCUGCUAACUCAACAGCUCGCAGUCAAG	0.14
GGUCACGUCUCAAUCAACUCAAUCGAGGGGGGGAAAACCCCUUUACCCUCAUCGUCAACAGCUCGCAGUCAAG	-0.236
GGUCACGUCUCAAUCAACUCUACUCCCAGGGAAACCCCUGGUUAAUUCAACAGCUCGCAGUCAAG	0.28
GGUCACGUCUCAAUCAACUCUACUCCCAGGGAAAACCCUGGUUUAUUCAACAGCUCGCAGUCAAG	-0.194
GGUCACGUCUCAAUCAACUCAUUUUCAGGAGUUUUCUCCUGUUAUUUCAACAGCUCGCAGUCAAG	-0.0528
GGUCACGUCUCAAUCAACUCAGUUCCAGGAGUUUCCUCCUGCUUUUUCAACAGCUCGCAGUCAAG	-0.0811
GGUCACGUCUCAAUCAACUCUUCCCCCAGGGAAACCCCUGGCUAUGUCAACAGCUCGCAGUCAAG	-0.0705
